The other results are listed elsewhere or left out.
Key:
HSkMC = human skeletal muscle cells; assay: cytotoxicity call (relative viability < 0.9); settings: 10 µM
HepG2 = assay: cytotoxicity call (relative viability < 0.9); settings: 10 µM
S. aureus RN4220 = assay: growth inhibition call (relative growth <= 0.2); settings: 50 µM

C[C@H](N)CCP(=O)(O)O
inactive: cytotoxicity call (HSkMC) | cytotoxicity call (HepG2) | growth inhibition call (S. aureus RN4220)

CO[C@H](CN(C)C(=O)c1ccc2c(c1)OCO2)[C@H](C)CN([C@H](C)CO)S(=O)(=O)c1ccc(C)cc1
inactive: cytotoxicity call (HSkMC) | cytotoxicity call (HepG2) | growth inhibition call (S. aureus RN4220)

C[C@@H]1CCCCO[C@@H](CN(C)S(C)(=O)=O)[C@H](C)CN([C@H](C)CO)C(=O)c2cc(NS(=O)(=O)c3ccccc3)ccc2O1
inactive: cytotoxicity call (HSkMC) | cytotoxicity call (HepG2) | growth inhibition call (S. aureus RN4220)

CCCNC(=O)N1C[C@]2(CN(C2)S(=O)(=O)c2ccc(cc2)OC)c2c(n(c3cc(ccc23)OC)C)[C@@H]1CO
inactive: cytotoxicity call (HSkMC) | cytotoxicity call (HepG2) | growth inhibition call (S. aureus RN4220)

C[C@@H]1CN([C@H](C)CO)S(=O)(=O)c2ccc(C#C[C@@H](C)O)cc2O[C@@H]1CN(C)C(=O)c1ccccc1
inactive: cytotoxicity call (HSkMC) | cytotoxicity call (HepG2) | growth inhibition call (S. aureus RN4220)

COC(=O)c1c(C(=O)OC)c2n(c(=O)c1-c1ccccc1)[C@@H]1c3ccccc3O[C@@](COCc3ccc(OC)cc3)([C@@H]1CO[Si](C)(C)C(C)(C)C)N2C
inactive: cytotoxicity call (HSkMC) | cytotoxicity call (HepG2) | growth inhibition call (S. aureus RN4220)

C[C@@H]1CN([C@H](C)CO)C(=O)Cc2cc(NC(=O)Nc3cccc4ccccc34)ccc2O[C@H]1CN(C)Cc1ccc2c(c1)OCO2
inactive: cytotoxicity call (HSkMC) | cytotoxicity call (HepG2) | growth inhibition call (S. aureus RN4220)

COc1ccc(NC(=O)N(C)C[C@H]2Oc3c(NC(=O)c4ccc(-c5nccs5)cc4)cccc3C(=O)N([C@@H](C)CO)C[C@@H]2C)cc1
inactive: cytotoxicity call (HSkMC) | cytotoxicity call (HepG2) | growth inhibition call (S. aureus RN4220)

CC(C)NC(=O)c1cccc2cccc(Sc3ccccc3)c12
inactive: cytotoxicity call (HSkMC) | cytotoxicity call (HepG2) | growth inhibition call (S. aureus RN4220)

CO[C@@H]1CN(C)C(=O)c2ccc(NS(=O)(=O)c3cn(C)cn3)cc2OC[C@H](C)N(CC2CC2)C[C@@H]1C
inactive: cytotoxicity call (HSkMC) | cytotoxicity call (HepG2) | growth inhibition call (S. aureus RN4220)
